Reference: PubChem BioAssay AID1460 (National Center for Advancing Translational Sciences (NCATS), 2008)
Screen size: about 270,000 compounds; about 5,800 (2.1%) were called active. The shares of active, inactive and inconclusive entries below differ from those in the screen. Calls come from the whole dose curve; as a rule, active = well fitted inhibition curve with a large enough effect; inconclusive = small, poorly fitted or top-dose-only effect; inactive = flat fitted curve, though single readings scatter. Potencies beside an inconclusive call are fits to weak or partial responses and may not hold up.

molecular target: Microtubule-associated protein tau (Homo sapiens) (UniProt P10636); assay: qHTS for Inhibitors of Tau Fibril Formation, Thioflavin T Binding; settings: recombinant tau K18 P301L (four-repeat tau fragment), heparin-induced fibrillization, ThT fluorescence; series mostly up to 57.4 µM; note: nearly all actives have a fitted effect of over 55% in size
UniProt P10636, sequence (P10636 whole entry, looked up, the tested form may be a part): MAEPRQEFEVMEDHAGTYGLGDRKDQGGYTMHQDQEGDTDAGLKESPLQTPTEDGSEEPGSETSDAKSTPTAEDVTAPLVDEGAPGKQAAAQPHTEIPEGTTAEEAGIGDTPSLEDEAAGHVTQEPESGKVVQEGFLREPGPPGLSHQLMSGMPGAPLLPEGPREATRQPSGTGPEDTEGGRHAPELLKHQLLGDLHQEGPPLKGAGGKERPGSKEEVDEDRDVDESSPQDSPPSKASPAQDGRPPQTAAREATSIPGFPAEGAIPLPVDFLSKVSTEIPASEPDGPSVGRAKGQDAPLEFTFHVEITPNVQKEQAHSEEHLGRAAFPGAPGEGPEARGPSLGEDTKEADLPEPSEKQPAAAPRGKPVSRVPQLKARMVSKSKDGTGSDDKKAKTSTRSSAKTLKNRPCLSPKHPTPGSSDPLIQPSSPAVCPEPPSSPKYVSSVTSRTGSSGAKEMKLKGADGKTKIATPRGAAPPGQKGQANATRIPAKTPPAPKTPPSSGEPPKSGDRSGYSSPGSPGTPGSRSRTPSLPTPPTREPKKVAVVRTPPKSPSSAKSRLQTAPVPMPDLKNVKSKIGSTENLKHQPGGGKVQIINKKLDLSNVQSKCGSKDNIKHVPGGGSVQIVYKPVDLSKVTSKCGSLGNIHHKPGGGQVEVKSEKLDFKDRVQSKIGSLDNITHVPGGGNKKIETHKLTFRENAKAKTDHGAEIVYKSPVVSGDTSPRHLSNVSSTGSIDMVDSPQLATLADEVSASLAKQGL
Outline: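 Tau K18 P301L fragment (15 uM unlabeled plus 0.24 uM Alexa 594-labeled) in 100 mM sodium acetate pH 7 with compound, fibrillization induced by 20 uM heparin for 6 hr at 37 C. Thioflavin T (30 uM) added, fluorescence read after 1 hr (ex 450, em 510 nm).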
Potency is the fitted concentration of half-maximal effect; tags give direction and shape of the fitted curve.

Structure (SMILES)	Potency
O=C(CCN1C(=O)c2ccccc2S1(=O)=O)N1CCN(c2ccccc2)CC1	inconclusive: 7.08 µM [inhibitor, partial curve]
CCOC(=O)c1cc(-c2ccccc2)n(CCCC(=O)Nc2cccc(C)c2C)c1C	inactive
Cc1cccc(Nc2nnc(SCC3CCCCO3)s2)c1 (configuration not stated)	inactive
CCOC(=O)/C(C#N)=C\C=C1C=CN(C)C=C1	inconclusive: 20 µM [inhibitor, partial curve]
COc1ccc(S(=O)(=O)Nc2ccc(N3CCOCC3)cc2)cc1Br	inactive
CCC(C)(C)n1nnnc1C(c1cc2cc(OC)ccc2[nH]c1=O)N1CCc2ccccc21 (configuration not stated)	inconclusive: 35.5 µM [inhibitor, single point]
CN(C)/N=C/c1ccc(P(c2ccc(/C=N/N(C)C)o2)c2ccc(/C=N/N(C)C)o2)o1	inactive
Cc1cc(C)cc(NC(=S)NN)c1	inconclusive: 25.1 µM [inhibitor, partial curve]
COc1cc(C=O)ccc1OCc1ccccc1Br	inconclusive: 17.8 µM [inhibitor, partial curve, poor fit]
COC(=O)c1sc(N2CCN(c3ccc(Cl)cc3)CC2)nc1N	inconclusive: 2 µM [inhibitor, partial curve]
COc1cccc(/C=N/NC(=O)c2[nH]c(C)c(C(=O)N/N=C/c3cccc(OC)c3)c2C)c1	inconclusive: 0.178 µM [inhibitor, full curve]
O=[N+]([O-])c1cc(Cl)ccc1N1CCCCC1	inactive
COc1cc(-c2nnc3sc(Cc4ccccc4)nn23)cc(OC)c1OC	inconclusive: 10 µM [inhibitor, partial curve]
c1ccc(Cc2nnc3sc(-c4ccc5c(c4)OCCO5)nn23)cc1	inconclusive: 25.1 µM [inhibitor, single point]
O=C(CCCO)NC1Cc2ccccc2C1	inconclusive: 3.98 µM [inhibitor, single point]
O=C(NCCCO)c1ccc2nc(-c3ccco3)c(-c3ccco3)nc2c1	active: 5.01 µM
CC(C)(C)C1CCc2c(sc3nc(-c4cc5cc(Br)ccc5oc4=O)[nH]c(=O)c23)C1 (configuration not stated)	inactive
NC(N)=NS(=O)(=O)c1ccc(NC(=S)NC(=O)/C=C/c2ccco2)cc1	inactive
Cc1cccc2sc(N(Cc3cccnc3)C(=O)c3cccs3)nc12	inconclusive: 15.8 µM [inhibitor, partial curve, poor fit]
O=C(N/N=C/c1c(O)n(-c2ccccc2Cl)c(=O)c2ccccc12)C1COc2ccccc2O1 (configuration not stated)	inconclusive: 14.1 µM [inhibitor, partial curve]
CCc1ccc(CN2CCc3nc(Nc4ccccc4)ncc3C2)cc1	inconclusive: 17.8 µM [inhibitor, single point]

Structure (SMILES)	Potency
CCOc1cc(NC(=O)c2ccccn2)c(OCC)cc1NC(=O)c1ccc(OC)cc1	inconclusive: 2.82 µM [inhibitor, full curve, poor fit]
C/C=C/C=C\C(=O)Nc1cccc(C2=NOC3(C2)C[C@@H](C(N)=O)N(C(=O)c2cc([N+](=O)[O-])cc([N+](=O)[O-])c2C)C3)c1 (some centres not stated)	inconclusive: 31.6 µM [inhibitor, single point]
CCOc1ccccc1C(=O)NC(C)c1ccc2c(c1)OCO2 (configuration not stated)	inactive
O=C1C2CC=CCC2C(=O)N1c1ccc(NCCc2ccccc2F)c([N+](=O)[O-])c1 (configuration not stated)	inconclusive: 11.2 µM [inhibitor, partial curve]
COc1ccc(N=Nc2c(C)[nH][nH]c2=O)cc1	active: 8.91 µM
COc1ccc(CC(=O)NNC(=S)Nc2ccc(Br)cc2)cc1	inactive
CC(/C=C/c1ccccc1)=N\NC(=O)c1ccc(Br)cc1	inconclusive: 0.562 µM [inhibitor, full curve, poor fit]
COc1cc(-c2nc(-c3ccccc3)c(-c3cccs3)[nH]2)cc(OC)c1OC	inactive
CCn1c(SCC(=O)N/N=C/C=C/c2ccco2)nc2ccccc21	inconclusive: 39.8 µM [inhibitor, single point]
COc1cc2[nH]c(=O)n(CCCC(=O)NCc3ccc(Cl)cc3)c(=O)c2cc1OC	inconclusive: 5.62 µM [inhibitor, full curve, poor fit]
CCOC(=O)c1cc(-c2ccccc2)n(CC(=O)NC(C)(C)C)c1C	inactive
COc1ccc(OCc2nnc(SCC(=O)N3CCCc4ccccc43)n2-c2ccc(C)cc2)cc1	inconclusive: 5.01 µM [inhibitor, full curve]
COc1cc(/C=N/NC(=S)Nc2cccc(S(=O)(=O)N(C)C)c2)cc(OC)c1O	inconclusive: 15.8 µM [inhibitor, partial curve]
c1ccc(-c2oc3ncnc(NCCCN4CCOCC4)c3c2-c2ccccc2)cc1	inconclusive: 35.5 µM [inhibitor, partial curve]
Cc1sc(NC(=O)C2C3CCC(O3)C2C(=O)O)nc1-c1ccc(CC(C)C)cc1 (configuration not stated)	inconclusive: 31.6 µM [inhibitor, single point]
COc1ccc(C(=O)Oc2cccc(Nc3ncnc4ccccc34)c2)cc1OC	inconclusive: 39.8 µM [inhibitor, single point]
COC(=O)C1=C(C)N(c2cccc3ccccc23)C(=O)C1	inconclusive: 39.8 µM [inhibitor, single point]
COc1ccc(OCC(=O)Nc2cc(-c3nc4ccccc4s3)ccc2C)cc1	inconclusive: 1.26 µM [inhibitor, full curve]
CCN1CCN(c2nc(Nc3ccc(C)c(C)c3)nc(N)c2[N+](=O)[O-])CC1	inconclusive: 25.1 µM [inhibitor, partial curve]
C#CCN1C(C)=C(C(=O)OC)C(c2cccc([N+](=O)[O-])c2)C(C(=O)OCC)=C1C (configuration not stated)	inconclusive: 8.91 µM [inhibitor, full curve, poor fit]
COc1cc(/C=N/NC(=O)C(=O)/C=C2\NC(C)(C)Cc3ccccc32)ccc1O	inconclusive: 11.2 µM [inhibitor, partial curve]
